In article PMC6919601, “Identification of Plasmodium dipeptidyl aminopeptidase allosteric inhibitors by high throughput screening” (PLoS ONE, 2019):
About 230 (0.21%) of roughly 110,000 compounds showed an effect of 50% or more. Some of the results follow.

Biological target: DPAP1 (Plasmodium falciparum, UniProt Q8IIJ9)
Assay: primary screen, percent inhibition; read by cleavage of a fluorogenic dipeptide substrate; higher = more effect of the substance
Set-up: species or system P. falciparum D10 trophozoite lysates; single well
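Note: 30 min substrate incubation versus DMSO and 10 µM JCP410 controls.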

Sequence of DPAP1 (Q8IIJ9 whole entry, looked up): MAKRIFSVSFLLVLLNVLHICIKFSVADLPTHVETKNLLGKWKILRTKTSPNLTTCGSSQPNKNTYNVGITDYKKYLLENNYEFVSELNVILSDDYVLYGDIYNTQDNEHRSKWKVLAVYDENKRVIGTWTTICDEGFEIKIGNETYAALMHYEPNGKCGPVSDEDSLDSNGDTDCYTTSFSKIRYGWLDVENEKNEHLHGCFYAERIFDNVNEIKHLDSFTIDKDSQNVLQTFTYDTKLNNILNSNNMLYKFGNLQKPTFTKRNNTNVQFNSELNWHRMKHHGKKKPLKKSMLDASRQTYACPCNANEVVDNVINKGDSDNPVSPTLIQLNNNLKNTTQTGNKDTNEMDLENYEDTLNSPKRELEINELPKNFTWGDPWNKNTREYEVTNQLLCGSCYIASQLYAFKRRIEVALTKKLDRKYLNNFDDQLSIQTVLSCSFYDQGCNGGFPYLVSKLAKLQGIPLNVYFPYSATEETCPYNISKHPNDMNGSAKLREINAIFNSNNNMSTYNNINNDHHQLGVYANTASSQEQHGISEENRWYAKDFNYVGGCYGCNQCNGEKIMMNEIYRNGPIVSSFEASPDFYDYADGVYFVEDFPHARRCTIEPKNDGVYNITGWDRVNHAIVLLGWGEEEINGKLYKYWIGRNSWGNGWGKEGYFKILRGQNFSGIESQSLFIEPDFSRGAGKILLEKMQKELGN

Compound	% Inhibition @ 10 uM [%]
CCOC(=O)c1c(S(=O)(=O)NCCN(C)C2CCCCC2)c(C)n(C)c1C	-6.84
COc1cc(CN2CCCC(O)C2)cc(OC)c1OC (stereo not drawn)	0.847
COc1ccccc1CNC(=O)c1ccccc1Cl	3.53
Cc1cc2nc(COc3cccc(C(F)(F)F)c3)cc(=O)n2o1	-0.495
Cc1cccc(C(=O)Nc2nc3nc(C)c(Cc4ccccc4)c(O)n3n2)c1	-4.91
O=C(Cn1nc(Cc2ccncc2)c2ccccc2c1=O)N1CCCC1	-1.21
Cc1ccc(C)c(COC(=O)N[C@@H](CC(C)C)C(=O)NCC#N)c1	-3.24
CCCCNc1ncnc2c1sc1nc(N3CCCC3)c3c(c12)CC(C)(C)OC3	-1.72
Cc1csc(NC(=O)C(c2ccccc2)N2Cc3ccccc3C2=O)n1 (stereo not drawn)	-3.88
O=C(Nc1cccc(NC(=O)c2ccc3c(c2)OCO3)c1)c1ccc2c(c1)OCO2	2.42
CCC(C(=O)Nc1ccccc1OC)c1ccccc1 (stereo not drawn)	-1.56
CCC1CCCCN1CCCNC(=O)Cn1c(=O)c2cccn2c2cccnc21 (stereo not drawn)	-0.677
CCC(=O)N1CCN(CCNC=C2C(=O)N(C3CCCCC3)C(=O)N(C3CCCCC3)C2=O)CC1	-11.2
CCOC(=O)c1c(-c2ccccc2)c(C(C)=O)c(=O)n(C)c1C	12.8
COc1ccc(C(=O)Nc2cccc3ccccc23)cc1OC	-0.192
O=C(NCCC(c1ccccc1)c1ccccc1)c1cc2ccccc2c(=O)o1	-4.77
Cc1ccc(NC(=O)c2ccc(Br)cc2)cc1Cl	-1.22
CCOc1ccc(/C=c2\sc3nc(-c4cc(OC)c(OC)c(OC)c4)nn3c2=O)cc1OC	3.87
c1cncc(CNC2CCCc3ccccc32)c1 (stereo not drawn)	-0.582
COc1ccc(C2OCC3(CO)CC=C(C)C2C3)cc1 (stereo not drawn)	-0.415
CC(C)OCCCN1C(=O)c2[nH]nc(-c3ccccc3O)c2C1c1ccc(Cl)cc1 (stereo not drawn)	2.02

Compound	% Inhibition @ 10 uM [%]
O=C(c1ccco1)N1CCN(C(=O)c2oc(=O)c3ccccc3c2-c2ccccc2)CC1	0.208
Cc1nc2c(c(C)nn2C(C)(C)C)c(C)c1CCC(=O)Nc1ccc(Br)cn1	-6.09
O=C(C[n+]1ccn2cccc2c1-c1ccccc1)c1ccccc1	3.34
CCOc1cc2c(cc1OCC)C(C(CC)CC)NCC2 (stereo not drawn)	-1.55
C=CCSc1nnc(-c2cccnc2)n1Cc1ccccc1	-3.08
COc1ccc(N(CC(=O)Nc2cccc3ccccc23)S(C)(=O)=O)cc1	-8.67
COc1cccc(/C=C2\N=C(c3cncc(Br)c3)OC2=O)c1	0.26
CO/C(O)=C1/C(C)=Nc2c(c(=O)n(C)c(=O)n2C)C1c1ccc(Br)cc1 (stereo not drawn)	-3.41
CC(C)(C)C1CCC(N2CCN(c3ccccc3)CC2)CC1 (stereo not drawn)	-5.94
CCN1CCN(C(=O)C2CCN(c3nn4cc(-c5ccc(F)cc5)nc4s3)CC2)CC1	-7.33
Cc1nn(-c2ccccc2)c2c1N(CC(=O)NC(C)c1ccccc1)C(=O)CS2 (stereo not drawn)	4.32
COc1ccc(CN2C(=O)c3cccnc3C2=O)cc1S(=O)(=O)Nc1cccnc1	5.87
COCCOC(=O)C1=C(C)N=C2SCCC(=O)N2C1c1ccc(OCc2ccccc2)cc1 (stereo not drawn)	3.27
FC(F)(F)c1ccc(CN2CCN(c3ccccc3)CC2)cc1	-0.0404
COc1cc(-c2nnc(N)s2)cc(OC)c1OC	0.997
O=C(NC(Cc1ccccc1)C(=O)O)/C(=C/c1ccccc1)NC(=O)c1ccc(Br)o1 (stereo not drawn)	5.59
COC(=O)c1sc2nc3n(c(=O)c2c1C)N=C(c1ccc(Cl)s1)CS3	2.72
COc1cccc(S(=O)(=O)NCC(=O)Nc2ccc(Cl)c(C(F)(F)F)c2)c1	-3.41
CC(=O)c1nn(-c2ccc(OC(F)(F)F)cc2)nc1NC1CC1	-5.33
CCOc1ccc(/C=C/c2nc(C#N)c(NCCCN(CC)CC)o2)cc1	4.13
O=C(NC1CCCCC1)c1cc2c(s1)-c1ccccc1S(=O)(=O)C2	-0.447

Compound	% Inhibition @ 10 uM [%]
COc1ccc(C(C)(C#N)CC#N)cc1 (stereo not drawn)	-0.807
COC(=O)C1=CN(CC2CCCO2)C=C(C(=O)OC)C1c1cccc(Oc2ccccc2)c1 (stereo not drawn)	-1.6
O=S(=O)(Cc1ccccc1)Nc1ccncc1	-1.03
CN1CCN(C(=O)c2ccc(Cn3c(SCc4ccccc4F)nc4ccncc43)cc2)CC1	-1.92
O=C(CC(NC(=O)C(F)(F)F)c1ccccc1)Nc1ccc(Br)cc1 (stereo not drawn)	0.266
Cc1ccc2oc3c(c(=O)c2c1)C(c1ccc(O)cc1)N(Cc1ccc(F)cc1)C3=O (stereo not drawn)	5.3
O=S(=O)(Nc1ccc(Br)cc1)c1ccc(-c2ccccc2)cc1	1.38
O=C(COCc1cc(-c2ccc(F)cc2)on1)Nc1cccnc1Cl	-3.1
Cc1ccccc1C1CC(=O)NC(SCC(=O)Nc2ccccc2)=C1C#N (stereo not drawn)	-3.77
COc1cccc(C(c2c(O)nc(S)nc2O)N2CCC(C)CC2)c1OC (stereo not drawn)	1.3
CCOc1cc(C(=O)NCCN(C)C)cc(OCC)c1OCC	2.25
CCOc1ccc(NC2(c3nnnn3-c3c(C)cccc3C)CCCCC2)cc1	11.6
CCC(=O)Nc1ccc(S(=O)(=O)N2CCCCC2)cc1	0.755
CC1CCN(C(=O)c2ccc(Br)cc2)CC1	-3.42
COc1ccc(-c2cc(C(F)F)n3ncc(C(=O)N4C(C)CCCC4C)c3n2)cc1 (stereo not drawn)	21.1
COc1ccc(N2CCN(Cc3ccc4c(c3)OCO4)CC2)cc1	3.8
Cc1ccc(N(CC(=O)Nc2c(C)cccc2C)S(C)(=O)=O)cc1Cl	-5.13
Cc1ccc(OCC(=O)O/N=C(\N)c2cccnc2)c(C)c1	-7.09
O=[N+]([O-])c1ccccc1S(=O)(=O)NC1CCCCCC1	0.526
CCOc1ccc(NC(=O)c2ccccc2NC(=O)c2ccc(C)cc2)cc1	2.69
COc1ccc(Cl)cc1-n1nnc(-c2nc3ccccc3[nH]2)c1N	1.76
